# The antibiotic and cytotoxicity screens of Wong et al. (2023)
# This is one part of the list.
# Test system: HepG2
# Test: cytotoxicity call (relative viability < 0.9)
# Conditions: 10 µM
row,Compound,cytotoxicity call
1,Nc1nnc([C@H]2CCCO2)o1,inactive
2,COc1ccc(S(=O)(=O)N(C)C[C@@H]2Oc3ccc(NS(=O)(=O)c4ccc(F)cc4)cc3C(=O)N([C@@H](C)CO)C[C@H]2C)cc1,inactive
3,COc1ccc(S(=O)(=O)N[C@@H]2C=C[C@@H](CC(=O)NCCc3ccncc3)O[C@@H]2CO)cc1,inactive
4,Cl.NC(Cc1ccc(O)cc1)C(=O)O (centres undefined),inactive
5,CC(C)c1cc2c(cc1S(=O)(=O)O)[C@@]1(C)CCC[C@@](C)(C(=O)O)[C@@H]1CC2,inactive

# Test system: S. aureus RN4220
# Test: growth inhibition call (relative growth <= 0.2)
# Conditions: 50 µM
row,Compound,growth inhibition call
1,CO[C@H]1CN(C)C(=O)c2ccc(NC(=O)C3CC3)cc2OC[C@H](C)N(C(=O)Cc2ccccn2)C[C@H]1C,inactive
2,C[C@H]1CN([C@@H](C)CO)C(=O)c2cccc(NC(=O)C3CC3)c2O[C@@H]1CN(C)Cc1ccc(C(=O)O)cc1,inactive
3,C[C@@H]1CN([C@@H](C)CO)C(=O)c2cc(NC(=O)c3ccncc3)ccc2O[C@@H](C)CCCCO[C@@H]1CN(C)Cc1ccccc1,inactive
4,C[C@@H]1CN(CC(=O)N2CC(C)(C)c3nc(CO)c(Cc4ccc(F)cc4)cc32)[C@@H](CN2CCOC[C@H]2C)CN1,inactive
5,C=CCOC(=O)[C@@H]1[C@@H]2C=C[C@]3(O2)[C@H](C(=O)N(CC=C)Cc2ccccc2)N(c2cccc(Cl)c2CO)C(=O)[C@@H]13,inactive
6,C[C@@H]1CN([C@H](C)CO)C(=O)c2cc(-c3cccnc3)cnc2O[C@@H]1CN(C)Cc1ccc(Oc2ccccc2)cc1,inactive
7,CO[C@H](CN(C)S(=O)(=O)c1cccc(Cl)c1)[C@@H](C)CN([C@H](C)CO)S(=O)(=O)c1cccc(Cl)c1,inactive
8,C[C@@H]1CN([C@H](C)CO)C(=O)c2cc(NC(=O)c3ccccc3)ccc2O[C@@H](C)CCCCO[C@@H]1CN(C)S(=O)(=O)c1ccc(Cl)cc1,inactive
9,CC(C)NC(=O)Nc1ccc2c(c1)C(=O)N([C@@H](C)CO)C[C@H](C)[C@H](CN(C)S(=O)(=O)c1ccccc1)O2,inactive
10,C[C@H]1CN([C@@H](C)CO)C(=O)c2cc(NC(=O)Cc3ccccc3)ccc2O[C@H]1CN(C)Cc1ccc(Cl)c(Cl)c1,inactive
11,Cc1noc(C)c1S(=O)(=O)Nc1ccc2c(c1)C(=O)N([C@H](C)CO)C[C@@H](C)[C@@H](CN(C)C(=O)Nc1ccc3c(c1)OCO3)O2,inactive
12,C[C@@H]1CCCCO[C@@H](CN(C)C(=O)Cc2ccccc2)[C@@H](C)CN([C@H](C)CO)C(=O)c2cc(NC(=O)Nc3cccc4ccccc34)ccc2O1,inactive
13,C[C@@H]1CN([C@@H](C)CO)C(=O)c2cc(NC(=O)Nc3ccc(F)cc3)ccc2O[C@H]1CN(C)Cc1ccc(Cl)c(Cl)c1,inactive
14,Cc1ccc(-c2ccc3c(c2)O[C@H](CN(C)C(=O)NC(C)C)[C@@H](C)CN([C@H](C)CO)S3(=O)=O)cc1,inactive
15,C[C@@H]1CCCCO[C@H](CN(C)S(C)(=O)=O)[C@H](C)CN([C@@H](C)CO)C(=O)c2cc(NS(=O)(=O)c3ccccc3)ccc2O1,inactive
16,Cc1ccc(S(=O)(=O)Nc2cccc3c2O[C@@H](CN(C)Cc2ccc(Oc4ccccc4)cc2)[C@H](C)CN([C@H](C)CO)C3=O)cc1,inactive
17,C[C@@H]1CN([C@H](C)CO)C(=O)c2cc(NS(=O)(=O)c3cccs3)ccc2O[C@H]1CN(C)S(=O)(=O)c1cccs1,inactive
18,O=C(N[C@@H]1CC=CC[C@H](CC(=O)N(CCO)Cc2ccccc2)C(=O)N[C@@H](c2ccccc2)COC1=O)OCC1c2ccccc2-c2ccccc21,inactive
19,C[C@@H]1CN([C@H](C)CO)C(=O)c2cc(C#Cc3cccnc3)cnc2O[C@H]1CN(C)S(C)(=O)=O,inactive
20,O=C(C[C@@H]1CC[C@@H]2[C@H](COC[C@H](O)CN2C(=O)Nc2ccc(Cl)cc2)O1)NCCc1ccncc1,inactive

row,Compound,growth inhibition call
1,O=C(C[C@@H]1CC[C@H]2[C@@H](COC[C@@H](O)CN2C(=O)c2cccnc2)O1)NCc1ccc(-c2ccccc2)cc1,inactive
2,O=C1C[C@@H]2C(=O)NCCN2C(NC(=O)c2ccccc2)=N1,inactive
3,O=C(C[C@@H]1CC[C@H]2[C@@H](COC[C@H](O)CN2C(=O)C2CC2)O1)NCc1ccncc1,inactive
4,C[C@H](CO)N1C[C@H](C)[C@H](CN(C)S(=O)(=O)c2ccc(Cl)cc2)Oc2ccc(NC(=O)CCCN(C)C)cc2C1=O,inactive
5,Cc1ccc(S(=O)(=O)N(C)C[C@H]2Oc3ccc(NC(=O)CCN4CCOCC4)cc3C(=O)N([C@H](C)CO)C[C@H]2C)cc1,inactive
6,CC(C)CC#Cc1ccc2c(c1)O[C@H](CN(C)S(=O)(=O)c1cccc(F)c1)[C@H](C)CN([C@@H](C)CO)S2(=O)=O,inactive
7,CCOC(=O)C1=C(C)NC(C)=C(C(=O)OC)C1c1cccc(Cl)c1Cl (centres undefined),inactive
8,CNC[C@H]1OCCCC[C@@H](C)Oc2ccc(NC(=O)Nc3cccc4ccccc34)cc2C(=O)N([C@@H](C)CO)C[C@H]1C,inactive
9,C[C@@H]1CN([C@H](C)CO)S(=O)(=O)c2ccc(C#CCN(C)C)cc2O[C@@H]1CN(C)C(=O)C1CCCCC1,inactive
10,CC(C)NC(=O)N(C)C[C@H]1Oc2c(NS(=O)(=O)c3cn(C)cn3)cccc2C(=O)N([C@H](C)CO)C[C@H]1C,inactive
11,O=C(C[C@H]1CC[C@@H]2[C@H](COC[C@@H](O)CN2S(=O)(=O)c2ccccc2)O1)N1CCOCC1,inactive
12,Cc1noc(C)c1NC(=O)N(C)C[C@@H]1OCCCC[C@@H](C)Oc2ccc(NS(=O)(=O)c3ccc(Cl)cc3)cc2C(=O)N([C@H](C)CO)C[C@H]1C,inactive
13,C[C@@H]1CCCCO[C@@H](CN(C)C(=O)c2ccncc2)[C@@H](C)CN([C@H](C)CO)C(=O)c2cc(NC(=O)CCCCCC(=O)Nc3ccccc3N)ccc2O1,inactive
14,C[C@H]1CN([C@@H](C)CO)C(=O)c2cc(NC(=O)Nc3ccc(C(F)(F)F)cc3)ccc2O[C@@H]1CN(C)Cc1ccc(Oc2ccccc2)cc1,inactive
15,Nc1nnc([C@H]2CCCO2)o1,inactive
16,COc1ccc(S(=O)(=O)N(C)C[C@@H]2Oc3ccc(NS(=O)(=O)c4ccc(F)cc4)cc3C(=O)N([C@@H](C)CO)C[C@H]2C)cc1,inactive
17,COc1ccc(S(=O)(=O)N[C@@H]2C=C[C@@H](CC(=O)NCCc3ccncc3)O[C@@H]2CO)cc1,inactive
18,Cl.NC(Cc1ccc(O)cc1)C(=O)O (centres undefined),inactive
19,CC(C)c1cc2c(cc1S(=O)(=O)O)[C@@]1(C)CCC[C@@](C)(C(=O)O)[C@@H]1CC2,inactive
